Test results as given in FireProtDB (doi:10.1016/j.bpc.2005.09.016).

Details: Gallus gallus; pH 1.9; 25 °C; Urea; CD; Glycine hydrochloride 0.05 M; reversible: Yes

Lysozyme C wild type (chain not printed)
denaturant m value: 1.19 kcal/mol/M and 1.24 kcal/mol/M and 1.13 kcal/mol/M
denaturant midpoint (higher = more stable): 4.8 M and 4.4 M and 4.2 M
unfolding free energy: 5.66 kcal/mol and 5.49 kcal/mol and 4.76 kcal/mol

Several values for one entry are separate records, joined by “and”; a condition that tells them apart may be missing. Equal values may be shown once.
